Source: the supplement of paper PMC4604168 (melanoma cell lines)
Some of the results follow. Most values come without repeats; read them as rough.
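Note: cell number obtained by counting DAPI-stained nuclei in high-throughput microscope images with image analysis software, screen run in 1,536-well plates.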

These compounds were tested on 501Mel (assay: cell count relative to DMSO control; melanoma cells; higher = more viable cells). Conditions: library dose: low library concentration; 72 h.
For `CS(=O)(=O)CCNCc1ccc(-c2ccc3ncnc(Nc4ccc(OCc5cccc(F)c5)c(Cl)c4)c3c2)o1` [lapatinib] + Oc1cc(-c2nc(-c3ccccc3)[nH]c2-c2ccncc2)ccc1Cl [L779450] (first compound 0.8 µM, partner dose 0.2 µM), the cell count was 65.9%.
`CN1CCN(c2ccc3nc(-c4c(N)c5c(F)cccc5[nH]c4=O)[nH]c3c2)CC1` [Dovitinib] + O=C(O)C(=O)Nc1sc2c(c1C(=O)O)CCNC2 [TCS401] (first compound 0.1 µM, partner dose 1.66667 µM) gave a cell count of 90.8%.
`C=CCNC1=C2C[C@@H](C)C[C@H](OC)[C@H](O)[C@@H](C)/C=C(\C)[C@H](OC(N)=O)[C@@H](OC)/C=C\C=C(/C)C(=O)NC(=CC1=O)C2=O` [Tanespimycin] + COc1ccc(COc2ccc(Cc3cnc(N)nc3N)cc2OC)cc1 [GW2580] (first compound 0.002 µM, partner dose 1 µM) showed a cell count of 66.6%.
Work on `CNC(=O)c1cc(Oc2ccc(NC(=O)Nc3ccc(Cl)c(C(F)(F)F)c3)cc2)ccn1` [sorafenib] + COc1ccc(-c2ccc3c(N4CCOCC4)nc(N4C[C@@H](C)O[C@@H](C)C4)nc3n2)cc1CO [KU0063794] (first compound 0.4 µM, partner dose 0.02 µM) yielded a cell count of 74.4%.
`CNC(=O)c1cc(Oc2ccc(NC(=O)Nc3ccc(Cl)c(C(F)(F)F)c3)cc2)ccn1` [sorafenib] + COc1ccc2c(c1)CCC1C2CCC2(C)C(NCCCCCCN3C(=O)C=CC3=O)CCC12 [U73122] (first compound 0.4 µM, partner dose 0.4 µM) gave a cell count of 95.7%.
For `C[C@@H](Oc1cc(-c2cnn(C3CCNCC3)c2)cnc1N)c1c(Cl)ccc(F)c1Cl` [Crizotinib] + O=c1cc(-c2cccc3c2Sc2ccccc2S3)oc(N2CCOCC2)c1 [KU55933] (first compound 0.2 µM, partner dose 1 µM), the cell count was 124%.
`C[C@@H](Oc1cc(-c2cnn(C3CCNCC3)c2)cnc1N)c1c(Cl)ccc(F)c1Cl` [Crizotinib] + COC(=O)c1sccc1S(=O)(=O)Nc1ccc(Nc2ccccc2)cc1OC [GSK0660] (first compound 0.2 µM, partner dose 1 µM) showed a cell count of 85.9%.
`CS(=O)(=O)CCNCc1ccc(-c2ccc3ncnc(Nc4ccc(OCc5cccc(F)c5)c(Cl)c4)c3c2)o1` [lapatinib] + O=C(O)C(=O)Nc1sc2c(c1C(=O)O)CCNC2 [TCS401] (first compound 0.8 µM, partner dose 1.66667 µM) gave a cell count of 72.9%.

The compounds below were run on A101D in the same assay as above. Conditions: library dose: low library concentration; 72 h.
With `C=CCNC1=C2C[C@@H](C)C[C@H](OC)[C@H](O)[C@@H](C)/C=C(\C)[C@H](OC(N)=O)[C@@H](OC)/C=C\C=C(/C)C(=O)NC(=CC1=O)C2=O` [Tanespimycin] + Cn1cc(/C=C2\C(=O)Nc3cccnc32)c2ccccc21 [GW441756] (first compound 0.002 µM, partner dose 0.4 µM) the cell count was 94.3%.
For `CNC(=O)c1cc(Oc2ccc(NC(=O)Nc3ccc(Cl)c(C(F)(F)F)c3)cc2)ccn1` [sorafenib] + c1cc(-c2cnn3cc(-c4ccc(OCCN5CCCCC5)cc4)cnc23)ccn1 [Dorsomorphin] (first compound 0.4 µM, partner dose 0.4 µM), the cell count was 93.4%.
`C[C@@H](Oc1cc(-c2cnn(C3CCNCC3)c2)cnc1N)c1c(Cl)ccc(F)c1Cl` [Crizotinib] + COc1cc(N2CCC(N3CCN(C)CC3)CC2)ccc1Nc1ncc(Cl)c(Nc2ccccc2S(=O)(=O)C(C)C)n1 [NVP-TAE684] (first compound 0.2 µM, partner dose 0.08 µM) gave a cell count of 97.8%.
`CNC(=O)c1cc(Oc2ccc(NC(=O)Nc3ccc(Cl)c(C(F)(F)F)c3)cc2)ccn1` [sorafenib] + CCCCCCCCCCCC1=C(O)C(=O)C=C(O)C1=O [Embelin] (first compound 0.4 µM, partner dose 1.2 µM) showed a cell count of 104%.
`CS(=O)(=O)CCNCc1ccc(-c2ccc3ncnc(Nc4ccc(OCc5cccc(F)c5)c(Cl)c4)c3c2)o1` [lapatinib] + O=C(Nc1ccccc1)c1cc([N+](=O)[O-])ccc1Cl [GW9662] (first compound 0.8 µM, partner dose 2 µM) showed a cell count of 99%.
With `CS(=O)(=O)CCNCc1ccc(-c2ccc3ncnc(Nc4ccc(OCc5cccc(F)c5)c(Cl)c4)c3c2)o1` [lapatinib] + COc1ccc2c(c1)CCC1C2CCC2(C)C(NCCCCCCN3C(=O)C=CC3=O)CCC12 [U73122] (first compound 0.8 µM, partner dose 0.4 µM) the cell count was 81.2%.
Compound `CNC(=O)c1cc(Oc2ccc(NC(=O)Nc3ccc(Cl)c(C(F)(F)F)c3)cc2)ccn1` [sorafenib] + O=C(Nc1ccccc1)c1cc([N+](=O)[O-])ccc1Cl [GW9662] (first compound 0.4 µM, partner dose 2 µM) has a cell count of 89.6%.
For `CS(=O)(=O)CCNCc1ccc(-c2ccc3ncnc(Nc4ccc(OCc5cccc(F)c5)c(Cl)c4)c3c2)o1` [lapatinib] + COc1ccc(-c2ccc3c(N4CCOCC4)nc(N4C[C@@H](C)O[C@@H](C)C4)nc3n2)cc1CO [KU0063794] (first compound 0.8 µM, partner dose 0.02 µM), the cell count was 86%.
With `CS(=O)(=O)CCNCc1ccc(-c2ccc3ncnc(Nc4ccc(OCc5cccc(F)c5)c(Cl)c4)c3c2)o1` [lapatinib] + O=C1NC(=O)/C(=C/c2ccc(-c3ccc(F)cc3O)o2)S1 [AS252424] (first compound 0.8 µM, partner dose 1 µM) the cell count was 96.8%.
With `CNC(=O)c1cc(Oc2ccc(NC(=O)Nc3ccc(Cl)c(C(F)(F)F)c3)cc2)ccn1` [sorafenib] + COc1cc(N2CCC(N3CCN(C)CC3)CC2)ccc1Nc1ncc(Cl)c(Nc2ccccc2S(=O)(=O)C(C)C)n1 [NVP-TAE684] (first compound 0.4 µM, partner dose 0.08 µM) the cell count was 95.8%.
`CN1CCN(c2ccc3nc(-c4c(N)c5c(F)cccc5[nH]c4=O)[nH]c3c2)CC1` [Dovitinib] + COc1cc2ncnc(Nc3ccc(Oc4ccccc4)cc3)c2cc1OC [SrcI1] (first compound 0.1 µM, partner dose 2 µM) was tested, and the cell count was 86.8%.
`CN1CCN(c2ccc3nc(-c4c(N)c5c(F)cccc5[nH]c4=O)[nH]c3c2)CC1` [Dovitinib] + CC(C)CCN1c2nc(Nc3cc(F)c(O)c(F)c3)ncc2N(C)C(=O)C1C [BID1870] (first compound 0.1 µM, partner dose 0.2 µM) gave a cell count of 79.4%.
With `CN1CCN(c2ccc3nc(-c4c(N)c5c(F)cccc5[nH]c4=O)[nH]c3c2)CC1` [Dovitinib] + O=C1NC(=O)/C(=C/c2ccc(-c3ccc(F)cc3O)o2)S1 [AS252424] (first compound 0.1 µM, partner dose 1 µM) the cell count was 95.1%.
`C=CCNC1=C2C[C@@H](C)C[C@H](OC)[C@H](O)[C@@H](C)/C=C(\C)[C@H](OC(N)=O)[C@@H](OC)/C=C\C=C(/C)C(=O)NC(=CC1=O)C2=O` [Tanespimycin] + CCN(CC)CCCCNc1ncc2cc(-c3cc(OC)cc(OC)c3)c(NC(=O)NC(C)(C)C)nc2n1 [PD173074] (first compound 0.002 µM, partner dose 0.1 µM) was tested, and the cell count was 94.7%.
Work on `C[C@@H](Oc1cc(-c2cnn(C3CCNCC3)c2)cnc1N)c1c(Cl)ccc(F)c1Cl` [Crizotinib] + CCCCCCCCCCCC1=C(O)C(=O)C=C(O)C1=O [Embelin] (first compound 0.2 µM, partner dose 1.2 µM) yielded a cell count of 95%.
For `CN1CCN(c2ccc3nc(-c4c(N)c5c(F)cccc5[nH]c4=O)[nH]c3c2)CC1` [Dovitinib] + CCCCCCCCCCCC1=C(O)C(=O)C=C(O)C1=O [Embelin] (first compound 0.1 µM, partner dose 1.2 µM), the cell count was 81.4%.
Work on `CN1CCN(c2ccc3nc(-c4c(N)c5c(F)cccc5[nH]c4=O)[nH]c3c2)CC1` [Dovitinib] + CCN(CC)CCCCNc1ncc2cc(-c3cc(OC)cc(OC)c3)c(NC(=O)NC(C)(C)C)nc2n1 [PD173074] (first compound 0.1 µM, partner dose 0.1 µM) yielded a cell count of 92.7%.
In the case of `CS(=O)(=O)CCNCc1ccc(-c2ccc3ncnc(Nc4ccc(OCc5cccc(F)c5)c(Cl)c4)c3c2)o1` [lapatinib] + COC(=O)c1sccc1S(=O)(=O)Nc1ccc(Nc2ccccc2)cc1OC [GSK0660] (first compound 0.8 µM, partner dose 1 µM), the cell count was 115%.
Compound `C=CCNC1=C2C[C@@H](C)C[C@H](OC)[C@H](O)[C@@H](C)/C=C(\C)[C@H](OC(N)=O)[C@@H](OC)/C=C\C=C(/C)C(=O)NC(=CC1=O)C2=O` [Tanespimycin] + COC(=O)c1sccc1S(=O)(=O)Nc1ccc(Nc2ccccc2)cc1OC [GSK0660] (first compound 0.002 µM, partner dose 1 µM) has a cell count of 119%.
For `C[C@@H](Oc1cc(-c2cnn(C3CCNCC3)c2)cnc1N)c1c(Cl)ccc(F)c1Cl` [Crizotinib] + O=S(=O)(c1ccccc1)N(CC(F)(F)F)c1ccc(C(O)(C(F)(F)F)C(F)(F)F)cc1 [T0901317] (first compound 0.2 µM, partner dose 1.4 µM), the cell count was 99.2%.
`C=CCNC1=C2C[C@@H](C)C[C@H](OC)[C@H](O)[C@@H](C)/C=C(\C)[C@H](OC(N)=O)[C@@H](OC)/C=C\C=C(/C)C(=O)NC(=CC1=O)C2=O` [Tanespimycin] + CCCCCCCCCCCC1=C(O)C(=O)C=C(O)C1=O [Embelin] (first compound 0.002 µM, partner dose 1.2 µM) showed a cell count of 96.5%.
